From the supplement of paper PMC12009370
Some of the results follow. Repeats are few or missing, and single values can be far off.

Experiments:
IMR-32 [1] = assay: drug sensitivity score (DSS), single drug with vehicle (DSS (score)); higher = more cytotoxic; extreme values may be limits of the assay; conditions: 72 h; co-treatment: vehicle (DMSO)
SK-N-AS [2] = assay: as above; conditions: 72 h; co-treatment: vehicle (DMSO)
SK-N-AS [3] = assay: drug sensitivity score (DSS) in combination with SL-176 (DSS (score)); higher = more cytotoxic; extreme values may be limits of the assay; conditions: 72 h; co-treatment: SL-176 11.2 uM (IC25 in IMR-32)
IMR-32 [4] = assay: as above; conditions: 72 h; co-treatment: SL-176 11.2 uM (IC25 in IMR-32)
SK-N-AS [5] = assay: drug sensitivity score (DSS) in combination with GSK2830371 (DSS (score)); neuroblastoma lines; SL-176 and GSK2830371 are WIP1 inhibitors; higher = more cytotoxic; extreme values may be limits of the assay; conditions: 72 h; co-treatment: GSK2830371 at IC25 in IMR-32
IMR-32 [6] = assay: as above; conditions: 72 h; co-treatment: GSK2830371 at IC25 in IMR-32
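For drug sensitivity score (DSS) in combination with GSK2830371 in this document: neuroblastoma cells in 384-well plates, each compound at five concentrations, luminescence read-out, DSS derived from fitted concentration-response curve combining IC50 with minimum and maximum inhibition.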
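For drug sensitivity score (DSS) in combination with SL-176 in this document: cells in 384-well plates, luminescence read-out, each screening drug at five concentrations, DSS derived from the fitted concentration-response curve combining IC50 with minimum and maximum inhibition.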
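For drug sensitivity score (DSS), single drug with vehicle in this document: 384-well screen with five concentrations per compound and a luminescence read-out, DSS computed from the fitted dose-response curve combining IC50 with minimum and maximum inhibition.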

Structure (SMILES) | drug sensitivity score (IMR-32 [1]) | drug sensitivity score (SK-N-AS [2]) | drug sensitivity score (SK-N-AS [3]) | drug sensitivity score (IMR-32 [4]) | drug sensitivity score (SK-N-AS [5]) | drug sensitivity score (IMR-32 [6])
Nc1cc(C(F)(F)F)c(-c2cc(N3CCOCC3)nc(N3CCOCC3)n2)cn1 [Buparlisib] | 16.9 | 13 | 12.1 | 17.6 | 14 | 18.5
CC#CC(=O)N1CC[C@@H](n2c(=O)n(-c3ccc(Oc4ccccc4)cc3)c3c(N)ncnc32)C1 [Tirabrutinib] | 0 | 0 | 0 | 0 | 0 | 0
COc1ccc(Cn2ccc3ccc(C(=O)NO)cc32)cc1 | 5.9 | 2.7 | 4.7 | 9.4 | 3.8 | 9.5
CNC(=O)c1ccc(-c2cnc3ncc(Cc4ccc5ncccc5c4)n3n2)cc1F [Capmatinib] | 0 | 0 | 0 | 0 | 0 | 0
CN(C)C[C@@H]1CCn2cc(c3ccccc32)C2=C(C(=O)NC2=O)c2cn(c3ccccc23)CCO1 [Ruboxistaurin] | 9 | 8.2 | 7.6 | 9 | 7.9 | 11.4
CCCCCCCCCCCCCCCCCCOP(=O)([O-])OC1CC[N+](C)(C)CC1 [Perifosine] | 0 | 0 | 0 | 0 | 0 | 0
O=S(=O)(c1cccc2c(O)nccc12)N1CCCNCC1 [Hydroxyfasudil] | 0 | 0.2 | 0 | 0 | 0.1 | 0
O=C(Nc1cccnc1)N1CCC(Cc2cccc(Oc3ccc(C(F)(F)F)cn3)c2)CC1 | 0 | 1.4 | 1.2 | 0.2 | 0.2 | 0.1
CC(C)N(CCCNC(=O)Nc1ccc(C(C)(C)C)cc1)C[C@H]1O[C@@H](n2cc(Br)c3c(N)ncnc32)[C@H](O)[C@@H]1O | 0.3 | 1 | 0.8 | 1 | 0 | 1.6
CC(C)c1c(C(=O)Nc2ccccc2)c(-c2ccccc2)c(-c2ccc(F)cc2)n1CC[C@@H](O)C[C@@H](O)CC(=O)O [Atorvastatin] | 7.3 | 0 | 0.2 | 5.1 | 0 | 6.8
Cc1c(C(=O)Nc2ccc(N3C[C@@H](C)O[C@@H](C)C3)nc2)cccc1-c1ccc(OC(F)(F)F)cc1 [Sonidegib] | 0 | 0 | 1.2 | 0 | 0 | 12.7
O=C(O)C(=O)O.[NH-][C@@H]1CCCC[C@H]1[NH-].[Pt+2] [Oxaliplatin] | 22.1 | 5.7 | 3.5 | 21.5 | 6 | 28.8
CCCCC(=O)OCC(=O)[C@]1(O)Cc2c(O)c3c(c(O)c2[C@@H](O[C@H]2C[C@H](NC(=O)C(F)(F)F)[C@H](O)[C@H](C)O2)C1)C(=O)c1c(OC)cccc1C3=O [Valrubicin] | 22.4 | 7.6 | 8.4 | 23.7 | 8.3 | 29.4
O=C1CCc2c(Oc3ccc4c(c3)[C@@H]3[C@H](O4)[C@H]3c3nc4cc(C(F)(F)F)ccc4[nH]3)ccnc2N1 | 6.2 | 8.3 | 7.7 | 7.5 | 8.4 | 8.9
CC(C)C[C@H](NC(=O)CNC(=O)c1cc(Cl)ccc1Cl)B(O)O [Ixazomib] | 18.1 | 12.2 | 12.9 | 14.8 | 12.7 | 17.9
O=C(c1cccc(Cl)c1F)N1CCN(Cc2cccc(Nc3nccs3)n2)CC1 | 20.6 | 8 | 6.5 | 19.4 | 7.7 | 22.8
Nc1ccn([C@@H]2O[C@H](CO)[C@@H](O)[C@@H]2O)c(=O)n1 [Cytarabine] | 28.2 | 13.2 | 11.4 | 23 | 16.2 | 30
CC(=O)N(O)CCCCCNC(=O)CCC(=O)N(O)CCCCCNC(=O)CCC(=O)N(O)CCCCCN [Deferoxamine] | 9.6 | 5 | 4 | 12.1 | 3.8 | 15
C[C@@H](Nc1cc(F)cc(F)c1)c1cc(C(=O)N(C)C)cc2c(=O)cc(N3CCOCC3)oc12 | 1.1 | 0 | 0.2 | 0 | 0 | 0.8
CC1(C)CC[C@]2(NC(=O)C(C)(F)F)CC[C@]3(C)[C@H](C(=O)C=C4[C@@]5(C)C=C(C#N)C(=O)C(C)(C)[C@@H]5CC[C@]43C)[C@@H]2C1 [Omaveloxolone] | 20.2 | 17.5 | 19.3 | 20.4 | 18.3 | 18.5

Structure (SMILES) | drug sensitivity score (IMR-32 [1]) | drug sensitivity score (SK-N-AS [2]) | drug sensitivity score (SK-N-AS [3]) | drug sensitivity score (IMR-32 [4]) | drug sensitivity score (SK-N-AS [5]) | drug sensitivity score (IMR-32 [6])
CC(C)N(C[C@H]1O[C@@H](n2cnc3c(N)ncnc32)[C@H](O)[C@@H]1O)[C@H]1C[C@@H](CCc2nc3cc(C(C)(C)C)ccc3[nH]2)C1 [Pinometostat] | 0 | 0 | 0 | 0 | 0 | 0
N#CC(c1ccnc(OCc2ccc(CN3CCOCC3)cc2)n1)c1nc2ccccc2s1 (stereo not given) [Bentamapimod] | 2.1 | 3.4 | 3.1 | 2.7 | 3.3 | 3.7
COc1cc2ncnc(Nc3cccc(Cl)c3F)c2cc1OC(=O)N1CCN(C)C[C@H]1C | 0 | 0 | 0 | 0 | 0 | 0
Cc1ncc(Cl)cc1NCc1ccc(C(=O)N[C@@H](CC2CCCC2)C(=O)NC2CC2)s1 | 2.8 | 0.9 | 0.4 | 11.2 | 0.1 | 1.3
COc1ccc(CCc2nc3cc(-c4c(C)noc4C)ccc3n2C[C@H](C)N2CCOCC2)cc1Cl | 5.8 | 3.5 | 3.8 | 7.5 | 3.9 | 7.7
CCOC(=O)CCNc1cc(N2CCc3ccccc3CC2)nc(-c2ccccn2)n1 | 7.2 | 3.4 | 9.1 | 26.1 | 3.4 | 9.5
CCn1c(-c2nonc2N)nc2c(C#CC(C)(C)O)ncc(OC[C@H]3CCCNC3)c21 | 2.6 | 1.1 | 0.3 | 2.3 | 0.2 | 5.6
Cc1ccc(NS(=O)(=O)c2cccc(C#N)c2)c2[nH]cc(C#N)c12 | 25.5 | 18.7 | 19.9 | 23.8 | 19.2 | 27.4
CN(C)Cc1c(C(=O)NCCOc2ccc(C(=O)NO)cc2)oc2ccccc12 [Abexinostat] | 22.6 | 17.3 | 17.6 | 21.5 | 18.9 | 25
CS(=O)(=O)N1CCN(Cc2cc3nc(-c4cccc5[nH]ncc45)nc(N4CCOCC4)c3s2)CC1 [Pictilisib] | 6.9 | 9.5 | 8.4 | 7 | 9.8 | 8.8
COc1ccccc1S(=O)(=O)Nc1ccc2c(c1)CN(C)C(=O)N2 | 6.3 | 6.1 | 6.7 | 5.7 | 5.1 | 4
Cc1ccc(F)c(NC(=O)Nc2ccc(-c3cccc4[nH]nc(N)c34)cc2)c1 [Linifanib] | 0 | 0 | 0 | 0 | 0 | 0
CC(C)(C)Cn1c(N)nc2ccc(-c3[nH]c(C(C)(C)C)nc3-c3ccc(F)cc3)nc21 [Ralimetinib] | 5.9 | 1.8 | 4.8 | 15.8 | 2.9 | 8.3
Cc1cc(Nc2cc(N3CCN(C)CC3)nc(Sc3ccc(NC(=O)C4CC4)cc3)n2)n[nH]1 [Tozasertib] | 31.7 | 12.8 | 11.1 | 31 | 13.2 | 31.1
CCS(=O)(=O)c1cccc(-c2cc(C(=O)NC3CCN(C)CC3)c(C)c3[nH]c4ncc(C)cc4c23)c1 | 17.4 | 9.1 | 7.5 | 16.9 | 8.9 | 22.5
CC(C)Oc1ccc(-c2nn([C@@H](C)c3oc4ccc(F)cc4c(=O)c3-c3cccc(F)c3)c3ncnc(N)c23)cc1F | 0 | 0 | 0 | 15.5 | 0 | 0.2
CC[C@@H]1CN(C(=O)NCC(F)(F)F)C[C@@H]1c1cnc2cnc3[nH]ccc3n12 [Upadacitinib] | 0 | 0 | 0 | 0 | 0 | 0
C[C@@H](Oc1ccc2[nH]nc(/C=C/c3cnn(CCO)c3)c2c1)c1c(Cl)cncc1Cl | 16.2 | 4.8 | 5.1 | 16.3 | 5.7 | 20.2
C[C@H](Nc1ncnc2[nH]cnc12)c1cc2ccc(F)cc2nc1-c1ccccn1 | 0 | 0 | 0 | 0 | 0 | 0
COc1cc2nccc(Oc3ccc(NC(=O)Nc4cc(C)on4)c(Cl)c3)c2cc1OC [Tivozanib] | 5 | 2.2 | 2.4 | 8.3 | 1.6 | 9.3
